Laboratory results taken from ChEMBL document CHEMBL4346670, “Discovery of Novel Janus Kinase (JAK) and Histone Deacetylase (HDAC) Dual Inhibitors for the Treatment of Hematological Malignancies” (J Med Chem, 2019).

What was measured:
[1] = target: 3-phosphoinositide-dependent protein kinase 1 (Homo sapiens) (UniProt O15530); experiment: Inhibition of recombinant human PDK1 at 200 nM using Ulight-FLGFTYVAP as substrate measured after 90 mins by LANCE method relative to control
[2] = target: Mitogen-activated protein kinase 14 (Homo sapiens) (UniProt Q16539); experiment: Inhibition of recombinant human P38alpha at 200 nM using Ulight-CFFKNIVTPRTPPPSQGK-amide as substrate measured after 30 mins by LANCE assay relative to control
In short: (§1)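 Part of an 85-kinase selectivity panel run by a contract lab, with the test compound at 20 nM and at 200 nM. Each human recombinant kinase's phosphorylation of its peptide substrate was measured following the JAK assay method. Activity is given as percent inhibition.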

[3] = target: Membrane-associated tyrosine- and threonine-specific cdc2-inhibitory kinase (Homo sapiens) (UniProt Q99640); experiment: Inhibition of recombinant human MYT1 at 200 nM using CREBtide as substrate measured after 60 mins by LANCE method relative to control; in short: as §1
[4] = target: Tyrosine-protein kinase SYK (Homo sapiens) (UniProt P43405); experiment: Inhibition of recombinant human SYK at 20 nM using Ulight-CAGAGAIETDKEYYTVKD as substrate measured after 30 mins by LANCE assay
[5] = target: Tyrosine-protein kinase receptor UFO (Homo sapiens) (UniProt P30530); experiment: Inhibition of recombinant human AXL at 200 nM using Ulight-TK peptide as substrate measured after 180 mins by LANCE assay relative to control
In short: (§2)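 Human recombinant kinases tested at 20 nM and 200 nM compound in an outsourced panel of 85 kinases. Activity measured as phosphorylation of a ULight-labelled substrate by LANCE detection, expressed as inhibition relative to control.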

[6] = target: MAP kinase-interacting serine/threonine-protein kinase 1 (Homo sapiens) (UniProt Q9BUB5); experiment: Inhibition of recombinant human MNK1 at 200 nM using CREBtide as substrate measured after 60 mins by LANCE assay relative to control; in short: as §1
[7] = target: Tyrosine-protein kinase ABL1 (Homo sapiens) (UniProt P00519); experiment: Inhibition of recombinant human ABL1 at 20 nM using Ulight-TK peptide as substrate measured after 30 mins by LANCE assay relative to control; in short: as §2
HEL = experiment: Induction of apoptosis in HEL cells assessed as viable cells at 0.5 uM after 24 hrs by Annexin-V/propidium iodide staining-based flow cytometric analysis (reference value: 87.5%); type: functional; conditions: Homo sapiens, read-out: Activity
[8] = target: Serine/threonine-protein kinase MARK1 (Homo sapiens) (UniProt Q9P0L2); experiment: Inhibition of recombinant human MARK1 at 200 nM using Ulight-RRRSLLE as substrate measured after 30 mins by LANCE method relative to control; in short: as §1
[9] = target: Serine/threonine-protein kinase PAK 2 (Homo sapiens) (UniProt Q13177); experiment: Inhibition of recombinant human PAK2 at 200 nM using Ulight-RRRSLLE as substrate measured after 60 mins by LANCE method relative to control; in short: as §1
[10] = target: Fibroblast growth factor receptor 2 (Homo sapiens) (UniProt P21802); experiment: Inhibition of recombinant human FGFR2 at 200 nM using Ulight-CAGAGAIETDKEYYTVKD as substrate measured after 15 mins by LANCE method relative to control
In short: (§3)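 Single-concentration screen within an 85-kinase panel run by a contract lab, with each compound tested at 20 nM and 200 nM. Human recombinant enzymes were used. Activity was quantified as phosphorylation of a peptide substrate read by LANCE time-resolved detection, and inhibition was expressed relative to control, using the same format as the JAK assay.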

[11] = target: Insulin-like growth factor 1 receptor (Homo sapiens) (UniProt P08069); experiment: Inhibition of recombinant human IGF1R at 20 nM using Ulight-TK peptide as substrate measured after 60 mins by LANCE method relative to control; in short: as §1
[12] = target: Serine/threonine-protein kinase TBK1 (Homo sapiens) (UniProt Q9UHD2); experiment: Inhibition of recombinant human TBK1 at 200 nM using Ulight-FLGFTYVAP as substrate measured after 15 mins by LANCE method relative to control
[13] = target: Serine/threonine-protein kinase 4 (Homo sapiens) (UniProt Q13043); experiment: Inhibition of recombinant human MST1 at 200 nM using Ulight-FLGFTYVAP as substrate measured after 60 mins by LANCE method relative to control; in short: as §1
[14] = target: Serine/threonine-protein kinase pim-2 (Homo sapiens) (UniProt Q9P1W9); experiment: Inhibition of recombinant human PIM2 at 20 nM using CREBtide as substrate measured after 60 mins by LANCE method relative to control
[15] = target: Fibroblast growth factor receptor 2 (Homo sapiens) (UniProt P21802); experiment: Inhibition of recombinant human FGFR2 at 20 nM using Ulight-CAGAGAIETDKEYYTVKD as substrate measured after 15 mins by LANCE method relative to control; in short: as §3
[16] = target: Aurora kinase A (Homo sapiens) (UniProt O14965); experiment: Inhibition of recombinant human AurA at 200 nM using Ulight-RRRSLLE peptide as substrate measured after 15 mins by LANCE assay relative to control; in short: as §3
[17] = target: Tyrosine-protein kinase Lyn (Homo sapiens) (UniProt P07948); experiment: Inhibition of recombinant human LYN A at 200 nM using biotinyl-beta amyloid-beta amyloid-beta AKVEKIGEGTYGVVYK after 120 mins by HTRF method relative to control
[18] = Toxicity in BALB/c nu mouse xenografted with HEL cells assessed as change in body weight at 100 mg/kg/day, ip administered for 16 days and measured every day during compound dosing; type: organism-based; conditions: in vivo, 384 h
[19] = target: Tyrosine-protein kinase Yes (Homo sapiens) (UniProt P07947); experiment: Inhibition of recombinant human YES at 200 nM using biotinyl-beta amyloid-beta amyloid-beta AYQAEENTYDEYEN as substrate after 30 mins by LANCE method relative to control
[20] = target: Platelet-derived growth factor receptor beta (Homo sapiens) (UniProt P09619); experiment: Inhibition of recombinant human PDGFRbeta at 20 nM using Ulight-Poly GAT[EAY(1:1:1)] as substrate measured after 30 mins by LANCE method relative to control; in short: as §1
[21] = target: Tyrosine-protein kinase ABL1 (Homo sapiens) (UniProt P00519); experiment: Inhibition of recombinant human ABL1 at 200 nM using Ulight-TK peptide as substrate measured after 30 mins by LANCE assay relative to control; in short: as §2
[22] = target: Receptor tyrosine-protein kinase erbB-2 (Homo sapiens) (UniProt P04626); experiment: Inhibition of recombinant human ERBB2 at 20 nM using biotinyl-beta amyloid-beta amyloid-beta AAEEEEYFELVAKKK after 10 mins by HTRF method relative to control
[23] = Clearance in CD1(ICR) mouse at 1 mg/kg, iv by LC-MS/MS analysis; type: ADME, organism-based; conditions: in vivo
In short: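 Male ICR (CD-1) mice dosed IP or IV, vehicle 10% DMSO, 40% PEG400, 50% water. Blood taken from the jugular vein at set time points and held on ice. Plasma separated by centrifugation, stored at -80 °C, and analysed by LC-MS/MS.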

[24] = target: Hepatocyte growth factor receptor (Homo sapiens) (UniProt P08581); experiment: Inhibition of recombinant human c-MET at 20 nM using Ulight-CAGAGAIETDKEYYTVKD as substrate measured after 60 mins by LANCE method relative to control

Sequence of UniProt P21802 (P21802 whole entry, looked up): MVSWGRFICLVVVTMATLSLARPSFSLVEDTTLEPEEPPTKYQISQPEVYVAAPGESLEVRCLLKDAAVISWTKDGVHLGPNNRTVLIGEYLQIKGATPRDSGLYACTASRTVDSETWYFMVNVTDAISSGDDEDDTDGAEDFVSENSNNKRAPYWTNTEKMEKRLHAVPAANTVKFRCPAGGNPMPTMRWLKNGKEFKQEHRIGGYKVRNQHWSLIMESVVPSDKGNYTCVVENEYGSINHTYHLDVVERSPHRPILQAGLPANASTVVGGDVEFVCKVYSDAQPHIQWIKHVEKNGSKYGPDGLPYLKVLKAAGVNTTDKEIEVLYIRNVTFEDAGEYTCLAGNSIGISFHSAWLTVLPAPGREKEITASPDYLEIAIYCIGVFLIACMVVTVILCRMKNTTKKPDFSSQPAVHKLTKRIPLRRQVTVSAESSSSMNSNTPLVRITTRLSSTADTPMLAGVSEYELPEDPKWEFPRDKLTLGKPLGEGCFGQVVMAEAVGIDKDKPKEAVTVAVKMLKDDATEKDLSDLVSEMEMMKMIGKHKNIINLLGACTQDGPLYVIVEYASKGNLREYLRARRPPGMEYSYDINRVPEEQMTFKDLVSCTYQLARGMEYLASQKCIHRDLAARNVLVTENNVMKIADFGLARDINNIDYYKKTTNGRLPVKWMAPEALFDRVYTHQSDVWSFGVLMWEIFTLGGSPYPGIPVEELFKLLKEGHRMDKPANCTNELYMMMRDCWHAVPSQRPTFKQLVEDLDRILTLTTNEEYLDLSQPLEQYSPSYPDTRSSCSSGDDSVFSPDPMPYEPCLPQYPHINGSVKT
Sequence of UniProt P00519 (P00519 whole entry): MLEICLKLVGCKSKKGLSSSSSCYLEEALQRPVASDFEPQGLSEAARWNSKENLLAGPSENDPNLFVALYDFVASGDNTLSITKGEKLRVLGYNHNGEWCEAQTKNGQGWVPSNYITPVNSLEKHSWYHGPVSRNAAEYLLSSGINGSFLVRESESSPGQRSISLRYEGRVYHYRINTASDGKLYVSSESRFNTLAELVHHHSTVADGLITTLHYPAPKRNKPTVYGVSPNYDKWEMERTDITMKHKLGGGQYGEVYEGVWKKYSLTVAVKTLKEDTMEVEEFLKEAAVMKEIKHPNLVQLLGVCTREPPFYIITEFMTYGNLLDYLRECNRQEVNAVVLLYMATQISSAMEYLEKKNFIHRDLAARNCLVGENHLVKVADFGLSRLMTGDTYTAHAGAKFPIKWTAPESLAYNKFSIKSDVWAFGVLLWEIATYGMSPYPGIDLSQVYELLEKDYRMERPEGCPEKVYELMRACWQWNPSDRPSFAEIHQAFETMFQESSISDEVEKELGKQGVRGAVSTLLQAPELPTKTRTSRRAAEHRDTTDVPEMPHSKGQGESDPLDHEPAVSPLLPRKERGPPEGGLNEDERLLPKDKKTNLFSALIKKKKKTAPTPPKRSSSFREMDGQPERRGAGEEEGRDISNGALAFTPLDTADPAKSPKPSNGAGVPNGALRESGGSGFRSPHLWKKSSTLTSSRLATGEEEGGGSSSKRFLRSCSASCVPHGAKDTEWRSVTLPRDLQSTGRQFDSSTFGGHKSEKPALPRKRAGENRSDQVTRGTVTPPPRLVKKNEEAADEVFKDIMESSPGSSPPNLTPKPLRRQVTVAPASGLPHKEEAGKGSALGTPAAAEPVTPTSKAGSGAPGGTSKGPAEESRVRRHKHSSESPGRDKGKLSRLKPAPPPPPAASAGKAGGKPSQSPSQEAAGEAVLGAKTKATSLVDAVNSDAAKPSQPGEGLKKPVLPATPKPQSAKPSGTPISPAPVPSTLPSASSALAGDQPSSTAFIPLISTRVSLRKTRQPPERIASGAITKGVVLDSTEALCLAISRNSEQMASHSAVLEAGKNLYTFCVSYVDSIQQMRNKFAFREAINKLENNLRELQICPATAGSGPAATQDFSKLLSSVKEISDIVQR
Sequence of UniProt O15530 (O15530 whole entry): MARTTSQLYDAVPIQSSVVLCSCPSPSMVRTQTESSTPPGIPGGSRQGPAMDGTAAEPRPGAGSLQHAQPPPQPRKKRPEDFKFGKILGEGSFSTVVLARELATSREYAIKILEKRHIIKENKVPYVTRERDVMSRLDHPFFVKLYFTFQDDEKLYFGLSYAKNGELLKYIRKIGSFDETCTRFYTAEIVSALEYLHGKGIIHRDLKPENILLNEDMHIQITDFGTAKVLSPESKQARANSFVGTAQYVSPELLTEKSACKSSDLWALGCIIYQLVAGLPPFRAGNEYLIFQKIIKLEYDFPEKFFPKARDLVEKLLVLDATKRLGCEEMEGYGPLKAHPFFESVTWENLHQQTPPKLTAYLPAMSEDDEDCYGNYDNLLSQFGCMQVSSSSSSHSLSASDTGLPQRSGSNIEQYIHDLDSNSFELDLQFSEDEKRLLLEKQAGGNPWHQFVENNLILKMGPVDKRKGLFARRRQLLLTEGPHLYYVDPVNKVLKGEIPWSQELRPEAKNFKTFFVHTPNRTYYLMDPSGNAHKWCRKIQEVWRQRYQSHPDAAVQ
Sequence of UniProt P07948 (P07948 whole entry, looked up): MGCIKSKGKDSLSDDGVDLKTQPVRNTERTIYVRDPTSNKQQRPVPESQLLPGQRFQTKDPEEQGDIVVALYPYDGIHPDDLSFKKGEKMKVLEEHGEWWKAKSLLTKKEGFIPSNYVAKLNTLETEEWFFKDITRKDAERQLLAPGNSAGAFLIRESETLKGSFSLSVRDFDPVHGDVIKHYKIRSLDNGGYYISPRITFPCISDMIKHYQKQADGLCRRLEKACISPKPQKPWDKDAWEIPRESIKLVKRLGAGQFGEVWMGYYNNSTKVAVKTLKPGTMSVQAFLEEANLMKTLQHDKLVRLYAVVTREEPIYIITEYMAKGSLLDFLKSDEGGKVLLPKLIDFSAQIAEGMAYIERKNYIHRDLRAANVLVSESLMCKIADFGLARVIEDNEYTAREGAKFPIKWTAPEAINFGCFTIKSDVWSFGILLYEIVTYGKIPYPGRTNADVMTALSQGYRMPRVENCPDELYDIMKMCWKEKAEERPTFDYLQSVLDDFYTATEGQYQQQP
Sequence of UniProt P09619 (P09619 whole entry): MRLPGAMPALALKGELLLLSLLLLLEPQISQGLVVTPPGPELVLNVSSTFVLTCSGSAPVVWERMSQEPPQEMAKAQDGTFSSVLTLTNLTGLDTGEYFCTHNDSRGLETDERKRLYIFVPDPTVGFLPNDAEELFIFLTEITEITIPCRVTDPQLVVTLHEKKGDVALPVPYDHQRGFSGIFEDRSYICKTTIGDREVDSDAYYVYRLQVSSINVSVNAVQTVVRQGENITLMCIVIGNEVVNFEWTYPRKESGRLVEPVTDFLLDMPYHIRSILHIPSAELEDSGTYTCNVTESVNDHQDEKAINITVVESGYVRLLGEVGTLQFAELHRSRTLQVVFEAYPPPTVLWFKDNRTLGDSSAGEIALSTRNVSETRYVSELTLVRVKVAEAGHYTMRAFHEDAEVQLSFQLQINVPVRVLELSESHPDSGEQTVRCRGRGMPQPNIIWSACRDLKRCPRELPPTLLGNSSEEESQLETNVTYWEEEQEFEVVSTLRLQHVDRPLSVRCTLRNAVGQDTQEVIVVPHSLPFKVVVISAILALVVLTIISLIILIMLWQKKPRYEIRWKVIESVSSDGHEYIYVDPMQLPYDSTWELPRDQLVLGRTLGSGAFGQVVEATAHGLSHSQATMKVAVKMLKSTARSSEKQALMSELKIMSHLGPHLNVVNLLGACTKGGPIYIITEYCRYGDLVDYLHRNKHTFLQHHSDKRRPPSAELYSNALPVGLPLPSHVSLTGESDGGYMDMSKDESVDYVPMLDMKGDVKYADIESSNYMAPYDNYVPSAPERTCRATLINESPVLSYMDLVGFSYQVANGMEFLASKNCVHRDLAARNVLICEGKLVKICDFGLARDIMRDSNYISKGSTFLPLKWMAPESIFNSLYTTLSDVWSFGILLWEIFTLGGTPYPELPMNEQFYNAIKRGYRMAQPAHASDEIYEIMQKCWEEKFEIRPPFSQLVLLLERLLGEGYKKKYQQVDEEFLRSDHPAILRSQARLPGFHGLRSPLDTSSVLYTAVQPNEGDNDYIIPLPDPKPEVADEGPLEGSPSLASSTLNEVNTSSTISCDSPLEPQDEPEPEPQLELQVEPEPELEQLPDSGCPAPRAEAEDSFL
Sequence of UniProt Q9UHD2 (Q9UHD2 whole entry): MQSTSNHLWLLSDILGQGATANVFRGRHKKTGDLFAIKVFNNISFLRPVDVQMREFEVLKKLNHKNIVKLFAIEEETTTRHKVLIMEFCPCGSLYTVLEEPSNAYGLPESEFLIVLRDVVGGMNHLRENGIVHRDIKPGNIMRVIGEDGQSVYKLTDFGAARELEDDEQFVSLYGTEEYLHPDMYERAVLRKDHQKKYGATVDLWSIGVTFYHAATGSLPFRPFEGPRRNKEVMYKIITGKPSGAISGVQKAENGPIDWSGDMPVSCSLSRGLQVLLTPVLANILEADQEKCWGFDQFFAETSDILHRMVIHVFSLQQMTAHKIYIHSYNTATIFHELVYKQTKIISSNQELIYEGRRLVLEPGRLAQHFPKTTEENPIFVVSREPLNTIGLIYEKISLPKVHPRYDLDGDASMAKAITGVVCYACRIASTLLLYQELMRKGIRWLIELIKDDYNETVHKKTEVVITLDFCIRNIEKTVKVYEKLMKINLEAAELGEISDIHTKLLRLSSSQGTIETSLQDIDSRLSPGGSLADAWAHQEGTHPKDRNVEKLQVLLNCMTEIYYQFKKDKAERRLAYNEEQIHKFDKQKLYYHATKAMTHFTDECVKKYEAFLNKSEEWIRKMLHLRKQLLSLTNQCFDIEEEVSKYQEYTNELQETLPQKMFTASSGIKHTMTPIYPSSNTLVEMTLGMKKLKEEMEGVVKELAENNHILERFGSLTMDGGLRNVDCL

Compound O=C(CCCCCn1cc(Nc2ncc(Cl)c(Nc3ccc(Cl)cc3)n2)cn1)NO has an inhibition [1] of 15%, an inhibition [2] of 0% and an inhibition [3] of 0%. For the same compound, the inhibition [4] was 8%, the inhibition [5] was 32% and the inhibition [6] was 0%. The inhibition [7] was 3%, the viability at 0.5 µM (HEL) was 4.27% and the inhibition [8] was 10%. It also gave an inhibition [9] of 7%, an inhibition [10] of 79% and an inhibition [11] of 44%. The inhibition [12] was 47%, the inhibition [13] was 23% and the inhibition [14] was -5%. It also gave an inhibition [15] of 9%, an inhibition [16] of 89% and an inhibition [17] of 11%. The Activity [18] was “Non-Toxic”, the inhibition [19] was 44% and the inhibition [20] was 20%. It also gave an inhibition [21] of 26%, an inhibition [22] of 0% and a clearance [23] of 643 mL/min/kg. The inhibition [24] was 5%.
